Test results taken from patent publication US20220411372A1, “SMALL-MOLECULE INHIBITORS FOR THE B-CATENIN/B-CELL LYMPHOMA 9 PROTEIN-PROTEIN INTERACTION” (H. Lee Moffitt Cancer Center and Research Institute, Inc., priority 2019, published 2022).

Assays:
[1] = system: FOPFlash reporter (three mutant Tcf binding sites); experiment: FOPFlash luciferase reporter assay; assay type: cell-based, human; details: 25 μM; all three cell lines (HEK293, SW480, MDA-MB-468)
Source text: Inhibition of β-Catenin/BCL9/Tcf Transcriptional Activity. […] For the TOPFlash reporter construct, the firefly luciferase reporter gene was placed downstream of three wild-type Tcf binding sites. For the FOPFlash reporter construct, the firefly luciferase reporter gene was place downstream of three mutant Tcf binding sites. The high expression of firefly luciferase in TOPFlash assays was controlled by tandem Tcf binding sites. The renilla luciferase reporter construct (pCMV-RL) was used as the internal control to normalize luciferase reporter signals and eliminate systematic errors such as cell viability, transfection effect, etc.
Cell Transfection and Luciferase Assay. FuGENE6 (E269A, Promega) 96 well plate format was used for the transfection of HEK293 and SW480 cells according to the manufacturer's instruction. […] SW480 cells were co-transfected with 60 ng the TOPFlash or FOPFlash firefly luciferase reporter gene and 40 ng renilla luciferase pCMV-RL normalization reporter. Cells were cultured in DMEM and 10% FBS at 37° C. for 24 h, and different concentrations of inhibitors or DMSO was added. After 24 h, the luciferase reporter activity was measured using the Dual-Glo system (E2940, Promega). Normalized luciferase activity in response to the treatment with inhibitors was compared with that obtained from the cells treated with DMSO. Experiments were performed in triplicate.

[2] = system: Axin2 and cyclin D1; experiment: Western blot of Axin2 and cyclin D1 protein expression; details: SW480 cells; β-tubulin internal control not affected; FIG. 2B
[3] = system: Wnt/β-catenin target genes Axin2, cyclin D1 and LEF1; experiment: Quantitative real-time PCR of Wnt/β-catenin target genes; assay type: cell-based, human; details: SW480 cells
Procedure: Inhibition of Expression of Wnt/β-Catenin Target Genes.
Quantitative Real Time PCR analysis. SW480 cells at 1×10^6/mL were treated with inhibitors at different concentrations for 24 h. […] The threshold cycle (CT) values were normalized to that of internal reference GAPDH. Experiments were performed in triplicate. The primer pairs are shown below

[4] = system: TNBC MDA-MB-231 cells; experiment: Matrigel invasion assay; assay type: cell-based, human; details: 20 μM, FIG. 3B
Procedure: Control, 0.2% DMSO in 10% FBS. Mitomycin (10 μg/mL) was added to inhibit cell proliferation and allow examination of the effects on cell migration. […] Each experiment was performed in duplicate.
Scratch wound healing and Matrigel invasion assays using TNBC MDA-MB-231 cells were conducted.

CC(C)(Oc1cccc(N2CCC[C@@H](C(=O)N(Cc3ccc(-c4cn[nH]c4)cc3)C3CC3)C2)c1)C(=O)N1CCNCC1.Cl [Compound 37, (R)-4-(2-(3-(3-((4-(1H-pyrazol-4-yl)benzyl)(cyclopropyl)carbamoyl)piperidin-1-yl)phenoxy)-2-methylpropanoyl)piperazin-1-ium chloride]
inhibitory activity in FOPFlash assay [1]: did not show obvious inhibitory activity | protein expression levels of Axin2 and cyclin D1 [2]: significantly decreased in a dose-dependent manner | Axin2 transcripts, % of the DMSO-treated control ([3]; 20 μM, 24 h): 36% | LEF1 transcripts, % of the DMSO-treated control ([3]; 20 μM, 24 h): 54% | cyclin D1 transcripts, % of the DMSO-treated control ([3]; 20 μM, 24 h): 43% | transcription of Wnt target genes (qPCR) ([3]; house-keeper gene HPRT not affected, FIG. 2A): dose-dependently inhibited transcription of all these Wnt target genes | TNBC cell invasion [4]: inhibited invasion | TNBC cell invasion, % of the DMSO-treated control [4]: 13%
